Measured values reported in PubChem BioAssay AID1508623 (National Center for Advancing Translational Sciences (NCATS), 2021).
Out of some 48,000 compounds screened, about 450 (0.94%) were called active. Not shown: some 19% with an inconclusive outcome. Calls come from the whole dose curve; as a rule, active = well fitted inhibition curve with a large enough effect; inconclusive = small, poorly fitted or top-dose-only effect; inactive = no such curve, though single readings can be large or run the other way. This is one part of the list.

Assay: Primary qHTS for Identification of Small Molecule Inhibitors of Huntingtin Promoter Activity; note: nearly all actives have a fitted effect of over 50% in size
Conditions: HEK293 HTT promoter firefly luciferase reporter (activity 0% = vehicle and -100% = no light), 24 h; series mostly up to 57.5 µM; activity change, negative = inhibition: at the top concentration
Source text: Assay Provider: Russell L. Margolis M.D.
Department Neurology, Johns Hopkins University School of Medicine, Baltimore, MD
Huntington's Disease (HD) is a neurodegenerative disorder caused by a CAG repeat expansion in exon 1 of huntingtin (HTT). While there are currently no disease-modifying treatments for HD, recent efforts have focused on development of nucleotide-based therapeutics to lower HTT expression. As an alternative to siRNA or oligonucleotide methods, we hypothesized that suppression of HTT expression might be accomplished by small molecules that either (1) directly decrease HTT expression by suppressing HTT promoter activity or (2) indirectly decrease HTT expression by increasing the promoter activity of HTT-AS, the gene antisense to HTT that appears to inhibit expression of HTT.
We developed and employed a high throughput screen for modifiers of HTT and HTT-AS promoter activity using luminescent reporter HEK293 cells; of the 52,041 compounds tested, we identified 898 replicable hits. We used a rigorous stepwise approach to assess compound toxicity and the capacity of the compounds to specifically lower huntingtin protein in 5 different cell lines, including HEK293 cells, HD lymphoblastoid cells, mouse primary neurons, HD iPSCs differentiated into cortical-like neurons, and HD hESCs. We found no compounds which were able to lower huntingtin without lowering cell viability in all assays, though the potential efficacy of a few compounds at non-toxic doses could not be excluded.
SEQUENCE No. (1, 2, 3, etc.); […] (e.g., Cells, Incubation, Reagent, etc.); VALUE and DESCRIPTION.
1; Reagent; 4 uL; 2,500 Hek293 luciferase reporter cells per wells
3; Compound; 23 nL; Control inhibitor / compound library
5; Reagent; 2.5 uL; Firefly Luc reagent; Dual-Glo Luciferase Reporter Assay System (Promega)
6; Time; 10 min; room temperature incubation
7; Detection; Luminescence; FLuc
NOTES (numbers refer to sequence above)
1; High-throughput screening, measuring luminescence from a Hek293 luciferase reporter, was performed in 1,536 well white-walled tissue-culture treated plates. 2,500 cells were plated in 4 µL of Opti-MEM per well using a Multidrop Combi Reagent Dispenser (ThermoFisher).
2; Assay plates were cultured for 24 hours.
3; Control inhibitor (PTC124; final concentration of 50 uM) and compound library (at final concentrations of 460 nM - 57.5 uM) were added to the assay plate using the Kalypsis Pintool Robotic System equipped with 1536 pinheads.
4; Cells were then incubated for 24 hours at 37 degrees C prior to luminescence measurements.
5; In all cases, luminescence was measured using the Dual-Glo Luciferase Reporter Assay System (Promega) following the manufacturer's instructions.
6; Room temperature incubation.
7; Luminescence signal was obtained using the PerkinElmer ViewLux plate reader. Results were normalized to vehicle control (0% activity) and zero RLU (-100% activity).
Potency is the fitted concentration of half-maximal effect.

Structure (SMILES)	activity change, negative = inhibition	Potency
Cc1nn(CCCC(=O)NCCc2ccc(Cl)cc2)c(=O)c2nn(-c3ccccc3)c(C)c12	inactive: -3.72%	
CCn1c(=O)c(C(=O)Nc2cc(OC)c(OC)c(OC)c2)nc2ccccc21	inactive: 8.54%	
COc1ccc(C2CC(=O)c3cc(-c4nc(-c5cccc([N+](=O)[O-])c5)cs4)c(=O)n(-c4ccccc4C)c3C2)cc1 (stereo not drawn)	inactive: -19.4%	
Cc1ccc(-c2cc(NC(=O)COc3c(C)cc(C)cc3C)on2)cc1	inactive: 30.1%	
O=C(NCc1ccccc1F)c1cccc(NC(=O)N2CCSc3ncccc32)c1	inactive: -29.4%	
CCN(CC)CCOC(=O)c1ccc(N)cc1	inactive: 3.13%	
COc1cc(NC(=O)Cn2c(=O)n(CC3CCCO3)c(=O)c3cc(OC)c(OC)cc32)cc(OC)c1 (stereo not drawn)	inactive: -5.76%	
CCOCCc1nn2c(=O)cc(COC(=O)c3ccc(NC(=O)c4ccc(F)cc4)cc3)nc2s1	inactive: -20.1%	
CCc1ccc(C2CC(=O)N(c3cccc(C(F)(F)F)c3)C3=C2C(=O)OC3)cc1 (stereo not drawn)	inactive: -17%	
CC[C@H](C)C(=O)O[C@H]1C[C@@H](C)C=C2C=C[C@H](C)[C@H](CC[C@@H]3C[C@@H](O)CC(=O)O3)[C@H]21	inactive: 18.5%	
CC(=O)N1CCc2cc(CNC(=O)Nc3ccccc3C(F)(F)F)ccc21	inactive: -1.88%	
Clc1ccc(C(Cn2ccnc2)OCc2ccc(Sc3ccccc3)cc2)c(Cl)c1 (stereo not drawn)	inactive	
COc1ccc2c(CNC3CCC(C)CC3)c(C(=O)O)n(Cc3ccccc3)c2c1 (stereo not drawn)	inactive: -12.1%	
Cc1ccc(-c2cn3nc(N4CCC(C(=O)Nc5ccccc5C)CC4)sc3n2)cc1	inactive: 17.5%	
CCOc1ccccc1CNC(=O)C1CCN(Cc2cc3ccccc3n2Cc2ccccc2)CC1	inactive: -0.0643%	
Cc1ccc2oc(C(=O)Nc3ccc(S(=O)(=O)Nc4ncccn4)cc3)cc(=O)c2c1	inactive: 35% [at 11.5 µM]	
CN(C)S(=O)(=O)N(CC(=O)NCCSc1ccc(Cl)cc1)c1ccccc1	inactive: -16.6%	
CCCS(=O)(=O)c1nc(S(=O)(=O)c2ccc(C)cc2)c(NC(C)c2ccccc2)s1 (stereo not drawn)	inactive: -17.4%	
Cc1cc(C)c2oc(C(=O)Nc3nc4ccc(Cl)cc4s3)cc(=O)c2c1	inactive: -2.11%	
O=C(COc1ccccc1F)Nc1ccc2nc(SCc3ccccc3)sc2c1	inactive: -7.8%	
CCC(=O)N1CCc2cc(S(=O)(=O)NCCC(=O)Nc3cccc(SC)c3)ccc21	inactive: -17.5%	
COc1ccc2oc(=O)c(-c3nc4ccc(C)cc4[nH]3)cc2c1	inactive: 21.9%	
Cc1ccc(-n2ncc(C(=O)N3CCN(c4cccc(C)c4C)CC3)c2C2CCNCC2)c(C)c1	inactive: -5.01%	
COc1ccc(Br)cc1CC1C(=O)Nc2ccccc21 (stereo not drawn)		active: 12.6 µM

Structure (SMILES)	activity change, negative = inhibition	Potency
CN(C(=O)NCc1noc2ccccc12)c1cccc(Cl)c1	inactive: -16.2%	
COc1ccccc1NC(=O)C1=C(C)Nc2nc(SCc3ccccc3Cl)nn2C1c1cccnc1 (stereo not drawn)	inactive: -2.95%	
Cc1ccc(NC(=O)CN2CCN(C3CCCCC3)C(=O)C2=O)cc1C	inactive: -5.19%	
Cc1ccc2c(c1)sc1nc(=O)n(-c3cccc(Cl)c3)c(=O)n12	inactive: 34.9%	
CCOC(=O)C1CCN(C(=O)Cn2nc(CC)n3c(cc4occc43)c2=O)CC1	inactive: -9.98%	
Cc1cc(Cl)ccc1NS(=O)(=O)c1cc2[nH]c(=O)c(=O)[nH]c2cc1C	inactive: -5.01%	
Cc1ccc(-n2c(=O)[nH]c3sc4c(c3c2=O)CCNC4)cc1C	inactive: -16.2%	
CCCCc1nn2c(C)c(-c3ccc(OCC)cc3)nc2s1	inactive: -14.7%	
COc1ccc(CN2C(=O)c3ccccc3C2C(=O)NC2CCCCCC2)c(OC)c1 (stereo not drawn)	inactive: 0%	
Cc1ccc(NC(=O)C2CCN(S(=O)(=O)c3c(C)noc3C)CC2)cc1C	inactive: -14.4%	
N#Cc1ccc(NC(=O)COCc2cc(-c3ccc(F)cc3)on2)cc1	inactive: 4.11%	
COC(=O)c1cc2oc(C)cc2n1Cc1ccc(Cl)cc1	inactive: -13.1%	
COC(=O)c1c(-c2cccs2)csc1NC(=O)COc1ccc(C(C)C)cc1	inactive: -13.8%	
CCOC(=O)C1CCN(C(=O)c2nn(-c3ccc(C)cc3)c(=O)n(C)c2=O)CC1	inactive: -7.3%	
CCN(CC)C(=O)C1CCN(C(=O)c2cnn(-c3ccccc3)c2-n2cccc2)CC1	inactive: -18.5%	
CCOC(=O)CSc1nc2ccccc2n2c(C)nnc12	inactive: 12%	
O=C(CSc1nccn1C1CCCC1)Nc1ccccc1	inactive: 36.4%	
Cc1ccc(Cl)cc1N1CCN(C(=O)c2cn(C)c3ccc(S(=O)(=O)N4CCCC4)cc3c2=O)CC1	inactive: -29.6%	
CCOc1ccc(-n2ccnc2SCC(=O)Nc2ccc(OC)cc2OC)cc1	inactive: -33.9%	
O=C(Cn1c(=O)n(-c2ccccc2)c(=O)c2c3c(sc21)CCCC3)Nc1ccc(F)cc1	inactive: -5.01%	
COc1ccccc1N1CCN(C(=O)c2cc3c(=O)n(Cc4cccnc4)ccc3nc2C)CC1	inactive: -3.79%	
Cc1ccccc1OCC(=O)Nc1nnc(S(=O)(=O)N(C)c2ccccc2)s1	inactive: 0.553%	
CCN1CCN(c2ncc3c(n2)CCN(Cc2ccc(C)s2)C3)CC1	inactive: -15.3%	
Oc1cccc2[nH]ccc12	inactive: 15.6%	
